The source gives no read counts; variants with many changes may rest on few reads.
B1: LINE1-full (parent)
chain: UACGUAGGUGGUUUUCCCCUGAUAGUGCUAAGGGGGCCUGGAAGUUUGGACUGGGCAGAGCUCAACACAGCGUGGCAAAGUGGCUGUGGCUAGACUGCCUCUCUGGAUUCCUCGUCACUCAGCAGGGCAUCUCUGAGAGAAAUGCC

Variants of: B1
Experiment: self-cleavage, relative activity (ratio to wild type); higher = more cleavage; in vitro, sequencing; the parent is a self-cleaving ribozyme
For U9A U47A A129G A140G, the self-cleavage was 1.07.
Variant U9A U47A A140G has a self-cleavage of 0.57.
U9A U47A U85C gave a self-cleavage of 0.18.
For U9A U47C A57C U130A, the self-cleavage was 0.18.
U9A U47C A59G showed a self-cleavage of 0.
In the case of U9A U47C U91C C110G, the self-cleavage is reported as 0.92.
With U9A U47C U100A U134C the self-cleavage was 0.82.
For U9A U47C U100C U112C, the self-cleavage was 0.57.
U9A U52C U102G gave a self-cleavage of 0.
For U9A U62C A121G, the self-cleavage was 0.31.
U9A U62C U119C showed a self-cleavage of 0.2.
In the case of U9A U62C U132A, the self-cleavage is reported as 0.16.
For U9A U73C A140G, the self-cleavage was 0.44.
U9A U73C A141G gave a self-cleavage of 0.97.
For U9A U81A U96A U108C A142G, the self-cleavage was 0.04.
Variant U9A U81C G83A A140G has a self-cleavage of 0.56.
U9A U102C G106A showed a self-cleavage of 0.65.
Work on U9A U102C U109A yielded a self-cleavage of 1.01.
U9A U143A C145U showed a self-cleavage of 0.9.
For U9C A22G A42G, the self-cleavage was 0.
U9C A22G A142G showed a self-cleavage of 0.6.
Work on U9C A22U A31G U62A U81C U134A yielded a self-cleavage of 0.61.
U9C A22U A107G showed a self-cleavage of 1.84.
In the case of U9C A22U C63U A67G U134A, the self-cleavage is reported as 0.28.
Work on U9C A24G U39C U109C C116U U130C yielded a self-cleavage of 1.22.
For U9C A24U A43G A107G, the self-cleavage was 0.
For U9C A24U A65G, the self-cleavage was 0.
In the case of U9C A30G A78G G122A A140C, the self-cleavage is reported as 2.26.
U9C A30G A78G U100C A121U A136G gave a self-cleavage of 2.3.
Variant U9C A30U A64G U109C has a self-cleavage of 0.22.
Variant U9C A30U U85C has a self-cleavage of 0.32.
Variant U9C A31G U47A has a self-cleavage of 1.53.
U9C A31U G70A U87C A138G showed a self-cleavage of 0.04.
For U9C A31U U45C U73A U81C U119C, the self-cleavage was 0.48.
U9C A31U U47A A77G U102C U108C gave a self-cleavage of 1.84.
U9C A31U U52C showed a self-cleavage of 0.38.
Work on U9C A31U U85A U102C U108A U109C yielded a self-cleavage of 0.
U9C A42G A64U A94G C131U showed a self-cleavage of 0.25.
Variant U9C A42G A140G has a self-cleavage of 0.69.
Variant U9C A42U U52A U73A A129G has a self-cleavage of 1.52.
With U9C A42U U62A U104C the self-cleavage was 0.
U9C A43G A64U showed a self-cleavage of 0.55.
U9C A43G U102A U108C U119C gave a self-cleavage of 0.
For U9C A43U A77G, the self-cleavage was 2.15.
U9C A43U U45G showed a self-cleavage of 1.3.
Variant U9C A50G G126A has a self-cleavage of 1.12.
Work on U9C A50G U96C yielded a self-cleavage of 1.36.
U9C A50U G53A A65G G70A U108C G127A gave a self-cleavage of 0.04.
Variant U9C A57G U96A has a self-cleavage of 0.2.
With U9C A57U C128U U134C the self-cleavage was 0.11.
Work on U9C A57U U108C yielded a self-cleavage of 0.59.
Work on U9C A59U U62C A69G G82A C131U A136G yielded a self-cleavage of 0.08.
Variant U9C A59U U73A U96C U112A has a self-cleavage of 0.
For U9C A59U U108C A141G, the self-cleavage was 1.58.
For U9C A64G A121U, the self-cleavage was 0.18.
With U9C A64U A92G U100C the self-cleavage was 0.64.
In the case of U9C A65G U102C, the self-cleavage is reported as 0.
U9C A65U G80A U112A gave a self-cleavage of 0.23.
For U9C A65U U112A A141G, the self-cleavage was 0.32.
For U9C A67U U96C A138U, the self-cleavage was 0.26.
For U9C A69G A78G U104C, the self-cleavage was 0.66.
U9C A69G A121G A140G gave a self-cleavage of 1.06.
U9C A69G C116U gave a self-cleavage of 0.56.
In the case of U9C A69G U100C, the self-cleavage is reported as 0.46.
Work on U9C A77C C113A A140G yielded a self-cleavage of 0.85.
U9C A78G U112A showed a self-cleavage of 0.87.
Variant U9C A94G U100A has a self-cleavage of 0.61.
U9C A94G U104C gave a self-cleavage of 0.4.
Work on U9C A117G A142G yielded a self-cleavage of 0.
U9C A117U A124U A142G showed a self-cleavage of 0.
U9C A117U A142G gave a self-cleavage of 1.26.
U9C A124U U134A showed a self-cleavage of 1.2.
For U9C A129G U130C, the self-cleavage was 0.
U9C C16U U26A G35U U47A G72U G74U U112C gave a self-cleavage of 0.07.
With U9C C19U A24U the self-cleavage was 1.05.
Variant U9C C19U A129G has a self-cleavage of 1.45.
Variant U9C C19U U26A A31G U112A has a self-cleavage of 0.84.
In the case of U9C C19U U132A, the self-cleavage is reported as 1.39.
In the case of U9C C37U U47C A64U U104A U115C, the self-cleavage is reported as 0.55.
U9C C66A C118U A141G gave a self-cleavage of 0.3.
With U9C C66U A107G the self-cleavage was 0.
U9C C68U A107G A138U showed a self-cleavage of 0.19.
With U9C C133A A138G the self-cleavage was 1.03.
Variant U9C C133A U134C has a self-cleavage of 1.21.
U9C G10U U26A C38U gave a self-cleavage of 0.75.
For U9C G11A U14A G126C A142G, the self-cleavage was 1.23.
For U9C G25U U45C A129G U130C, the self-cleavage was 1.67.
Work on U9C G27A U87C yielded a self-cleavage of 0.
U9C G32A A77U G106C showed a self-cleavage of 0.42.
U9C G33A A78G showed a self-cleavage of 0.96.
Variant U9C G35U G55A U85C has a self-cleavage of 0.15.
Variant U9C G41U C113U A140G has a self-cleavage of 0.39.
U9C G41U U46C A57G U91C C110U gave a self-cleavage of 0.09.
With U9C G49U C61U A69G U108C the self-cleavage was 0.03.
In the case of U9C G53A U87A U115C, the self-cleavage is reported as 0.15.
Work on U9C G53C C110A yielded a self-cleavage of 0.51.
With U9C G53U C90U U96A C110U the self-cleavage was 0.09.
With U9C G54A G144A the self-cleavage was 0.78.
For U9C G55C U130C A141G, the self-cleavage was 0.27.
For U9C G75U U119C U130C, the self-cleavage was 0.92.
For U9C G82U U102C, the self-cleavage was 1.5.
For U9C G114A A129G, the self-cleavage was 0.78.
For U9C G137A A138G A141C, the self-cleavage was 1.44.
Variant U9C U12A U73A U112C A129U has a self-cleavage of 1.31.
In the case of U9C U12C A129G, the self-cleavage is reported as 0.32.
In the case of U9C U12C U29G U91A U115A, the self-cleavage is reported as 0.8.
In the case of U9C U12C U85C, the self-cleavage is reported as 0.
With U9C U12C U102C the self-cleavage was 0.9.
In the case of U9C U12G A31G A121U, the self-cleavage is reported as 0.26.
Work on U9C U12G A78G U130C A142G yielded a self-cleavage of 1.1.
With U9C U12G A94G the self-cleavage was 0.54.
Variant U9C U12G U15C G21A G33A C38U A77G U100C has a self-cleavage of 1.71.
U9C U13A A24G gave a self-cleavage of 1.18.
With U9C U13A A31U C63A the self-cleavage was 0.11.
In the case of U9C U13C A67U A142G, the self-cleavage is reported as 0.47.
Work on U9C U13C A69G G89A A138G yielded a self-cleavage of 0.2.
For U9C U13C A121G, the self-cleavage was 0.94.
U9C U13C A141G gave a self-cleavage of 0.82.
For U9C U13C C28A U91A A129G A140G, the self-cleavage was 0.58.
U9C U13C G41A C68A U115A showed a self-cleavage of 0.13.
In the case of U9C U13C U20A U62G U108C, the self-cleavage is reported as 1.45.
In the case of U9C U13C U45G A136G, the self-cleavage is reported as 1.28.
With U9C U13C U108A A121G the self-cleavage was 1.08.
With U9C U13C U119C the self-cleavage was 1.38.
For U9C U14A U85A, the self-cleavage was 0.19.
With U9C U14C A121G A142G the self-cleavage was 1.02.
In the case of U9C U14C G33U A121G, the self-cleavage is reported as 1.14.
In the case of U9C U14C G35A, the self-cleavage is reported as 1.24.
U9C U14C U39C A59G U100C A142G gave a self-cleavage of 0.
U9C U14C U39G A129U showed a self-cleavage of 1.23.
U9C U14C U52C G75A gave a self-cleavage of 1.24.
U9C U15A A24U gave a self-cleavage of 0.72.
Variant U9C U15A U47A A121U has a self-cleavage of 0.72.
Variant U9C U15C A22G U46C U81A U119C has a self-cleavage of 2.8.
U9C U15C A42G U81C U132C showed a self-cleavage of 0.
U9C U15C A59G U109A U112C U119A gave a self-cleavage of 0.
With U9C U15C C61A U62C A142G the self-cleavage was 0.28.
Variant U9C U15C U52A A107G has a self-cleavage of 0.35.
In the case of U9C U15C U81A U143C, the self-cleavage is reported as 1.7.
U9C U15C U104C A142G showed a self-cleavage of 0.
Work on U9C U20C C37A A43U U115C A141G yielded a self-cleavage of 0.82.
U9C U20C G25U showed a self-cleavage of 1.34.
U9C U20C U26C A31G A124U showed a self-cleavage of 0.84.
Work on U9C U20C U26C A136C yielded a self-cleavage of 2.14.
For U9C U20C U143C, the self-cleavage was 1.46.
With U9C U20G U47C U130C the self-cleavage was 0.
In the case of U9C U20G U73A A78G U119C U143C, the self-cleavage is reported as 1.15.
Work on U9C U23A A50U A79G yielded a self-cleavage of 0.48.
In the case of U9C U23C U46C A65U U91A U115C, the self-cleavage is reported as 0.
U9C U26A A124G showed a self-cleavage of 0.97.
With U9C U26C U62C A117U the self-cleavage was 0.13.
For U9C U26C U115C, the self-cleavage was 0.
Work on U9C U26C U134C yielded a self-cleavage of 0.59.
Variant U9C U26G A79U has a self-cleavage of 1.6.
With U9C U26G G44A C118U G126A A140G the self-cleavage was 1.14.
Variant U9C U29C A57U has a self-cleavage of 0.
U9C U29C U62C A69G A140U gave a self-cleavage of 0.
Work on U9C U29G G122U A136G yielded a self-cleavage of 0.74.
In the case of U9C U39A U52A, the self-cleavage is reported as 0.92.
With U9C U39A U73C A92U A141G the self-cleavage was 0.77.
With U9C U39C A92C the self-cleavage was 1.25.
U9C U39C U81A U109C A124G gave a self-cleavage of 1.31.
With U9C U39G A43U A78G the self-cleavage was 1.04.
Variant U9C U45A A59U has a self-cleavage of 0.38.
With U9C U45C A57C U62C U143C the self-cleavage was 0.
In the case of U9C U45C U108C C113A A136G, the self-cleavage is reported as 1.15.
For U9C U46A A50G C99U A121G U143A, the self-cleavage was 1.23.
